Sequences with one replicate were seen in a single cluster, so their values are uncertain.
Test system: ATP
Experiment: switch fluorescence ratio, 500 uM ATP over buffer (Cy3 cluster intensity, sum of 5 cycles each) (fold (ratio)); higher = stronger signal-on switching upon ATP binding; sequences stand for … in TCGTCGGCAGCGTCAGATGTGTATAAGAGACAGTTTTTTTTTTTTTTTTTTTTTTTTT…TC
Details: aptamer strand: ATP DNA aptamer (quencher-CACCTGGGGGAGTATTGCGGAGGAAGG + anchor), 100 nM annealed; ATP concentration: 500 uM; one replicate
Summary of the method: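 Between each of five buffer/ATP cycles, the flow-cell was stripped with NaOH and re-annealed. Each cycle imaged Cy3-labelled switching-strand clusters, annealed to 100 nM quencher-labelled ATP aptamer on a modified Illumina MiSeq flow-cell, first in selection buffer and then after 15 min with 500 uM ATP at 22 °C. The fluorescence ratio is summed target-cycle over summed buffer-cycle Cy3 intensity per cluster, averaged per switch-domain sequence, with clusters outside 100-1000 RFU excluded.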
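Note: ATP exposure 15 min at 22 °C before imaging.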

Row | Sequence | switch fluorescence ratio
1 | TTGTTATACA | 1
2 | CGGTTTGCT | 1.01
3 | GGTCTAATTT | 0.955
4 | AGTGTAGTAT | 0.985
5 | TTTGAATATC | 1.09
6 | ATGAAGTGTG | 0.99
7 | GAGGGGGGT | 1.01
8 | TCTGGAGGCA | 1.09
9 | GGTCCTGAGT | 0.984
10 | TCCGTAGATG | 1.02
11 | CAGCTGCTAC | 5.71
12 | CGGCGCGATA | 4.54
13 | ATTAGACGAC | 1.07
14 | ACACTCAGTT | 1.04
15 | TTTGTCGCAC | 1.27
16 | GGGCACCCAG | 1.03
17 | AACCCTAGGG | 1.04
18 | CTATTACGA | 1.04
19 | ATTTAGCGTA | 1.07
20 | TGAAAATATG | 0.988
21 | TCTTCATACA | 1
22 | CGTGAAGTGT | 1.02
23 | TGTATCAAGC | 1.05
24 | TTTGCGAAGA | 1
25 | ATGGTGCGTA | 1.12
26 | ACTTTGCGCT | 1.05

Row | Sequence | switch fluorescence ratio
27 | GTTCCGTAT | 1.02
28 | GATGCAGGG | 1.1
29 | GCTCTCGAGT | 1.02
30 | TTACGACGA | 1.09
31 | CGTATGTAGC | 0.929
32 | ATATTCTGTA | 0.99
33 | CGAGTAGTTC | 1.01
34 | GCCTGATAAC | 1.01
35 | CAAATGGCGT | 1.03
36 | ATCATAGTGC | 1.13
37 | AATAGTGACT | 0.991
38 | TGGTGTGAAA | 1.02
39 | ATCTTGATGT | 0.972
40 | GCTAGACTGG | 1.01
41 | GACCAAATTC | 1.05
42 | TCATCCGTGG | 1.69
43 | AATGAGTCTC | 1.03
44 | CACTTGTTAA | 0.973
45 | CCTTGAATGC | 2.4
46 | GGTGCCAAGC | 1.11
47 | GCGTTTCAGA | 1
48 | TTACTAATCA | 1.03
49 | TCGACCTTAG | 1.01
50 | TTCCTTACGC | 1.27
51 | ATGTGCTATA | 1.03
52 | AAATCCGGGC | 1.07

Row | Sequence | switch fluorescence ratio
53 | AGCATAGTTA | 1.01
54 | AAACCTGAG | 1.47
55 | CGATCCGG | 1.03
56 | TTCAGTCCTG | 1
57 | GAAGGAGCAT | 1.04
58 | TCATTGTTGA | 0.994
59 | CATACTGTTA | 1.05
60 | TGAGTCAGGC | 0.888
61 | GGGCTCGCAC | 1.14
62 | TTACCATCAG | 1.05
63 | CTGAGCAGGC | 0.947
64 | GCTGCGATCG | 1.07
65 | GTGGCTGTGC | 0.958
66 | TCAACAGGAT | 0.988
67 | GACGAAGAGC | 1.03
68 | ACGGGTTGGA | 1.03
69 | TCACGGTCTA | 1.07
70 | ATGATCTCAT | 0.954
71 | AAAGGTGGCC | 1.1
72 | CAACGCGGCG | 0.944
73 | CGGCCACTG | 1.01
74 | ATACCTGCAA | 1.95
75 | CGGATCCAAA | 1.03
76 | CTGTTTATAG | 0.988
77 | CAAATTCCGA | 1.07
78 | CTAATAGGGG | 1.02

Row | Sequence | switch fluorescence ratio
79 | TATCTGCG | 1.03
80 | ATGGCGATTA | 0.964
81 | AATTGCTATG | 1
82 | GAGATCAGTG | 1.02
83 | TTCCTTTATT | 1.05
84 | GGGTCTGTTC | 1.05
85 | TGGTATGTTA | 1.07
86 | CGCTGGGGTG | 0.979
87 | ATCATTAGCA | 1
88 | TCAGATGGGT | 0.969
89 | CTAGACGCGG | 0.994
90 | TTTGTGAAT | 0.977
91 | ATGGTGGGTA | 0.976
92 | GGGTATGGTC | 1.01
93 | GTACTAACAA | 1.06
94 | TTTAACATGG | 1.05
95 | GCGGAATGAT | 1.03
96 | GCGAAAGGGC | 1.03
97 | CTGCACCGCG | 0.995
98 | AAGCTGATCC | 1.07
99 | GTTCAGACCT | 1.35
100 | ATGCGCCGGC | 0.948
101 | CGACTGCTGA | 1.09
102 | TGACGCTTA | 1.17
103 | CCGGATAGT | 1.11
104 | ATATGGAC | 1.01

Row | Sequence | switch fluorescence ratio
105 | TTCGAGTTCA | 1.01
106 | ATCTCACGTA | 1.21
107 | TCTCTAAGGT | 1
108 | CAGGCTTGTC | 0.989
109 | TTCCGGGCAT | 2.7
110 | TTCCCTGTAG | 1.03
111 | CTGGGTGTAA | 1.01
112 | AGCACTTGTT | 1.01
113 | AGCTTTGGCG | 0.966
114 | CTTTTAAGCG | 1.01
115 | GTAGCATGAG | 1.57
116 | TGATCCAGAT | 0.959
117 | TTCGTTGTTG | 0.997
118 | TATAGAGCGT | 1.03
119 | GCCGAAGGCA | 1
120 | TGTTTACGA | 1.01
121 | ACGGTTGTTG | 1.01
122 | TTGGCTAAGC | 0.946
123 | GGCGCCCACT | 0.994
124 | CATTGTCTCG | 0.955
125 | ACGGATTTTG | 0.992
126 | AAGCCTAGAG | 1.02
127 | GACGAATGAT | 1.01
128 | CGGTAAAAAC | 0.951
129 | ACGTACGTCA | 1.23
130 | TTCAAATTGT | 1.01

Row | Sequence | switch fluorescence ratio
131 | GCAATTCGTC | 1.27
132 | ATCAATATTT | 0.993
133 | GTTAGGTTAC | 1.04
134 | TGCGGCCTGT | 0.986
135 | TTATGAACGT | 0.929
136 | GTGGTGCCGC | 1.01
137 | TACGTTCTGT | 1.01
138 | GAACAAGCCT | 1.18
139 | CATGAATTCT | 0.988
140 | GTGTCGAGTT | 1.01
141 | GAGATTACGG | 1.03
142 | AGTAAACCGC | 1.26
143 | GCCCCCGACT | 1.03
144 | TGGCCAGGA | 0.978
145 | CAGGTCTGAG | 1.02
146 | TCGCGTTAGC | 0.949
147 | AGGTTGAGCG | 1
148 | ACCAAGTCA | 1.07
149 | TAGATCCTG | 1
150 | TGCGCGGCTA | 0.987
151 | AGGTTACAGA | 1.02
152 | CACTTTCG | 1.05
153 | CGTTAGGTCA | 1.03
154 | TCATGTTAAT | 1.04

— the supplement of paper PMC10126150
